# Measurements from PubChem BioAssay AID540317 (National Center for Advancing Translational Sciences (NCATS), 2011).
# In all, about 390,000 compounds went through this assay and about 2,200 (0.56%) were called active. This list was built around the results that the source calls inconclusive (neither active nor inactive); the mix of calls is not that of the screen. Calls follow the shape of the dose curve; as a rule, active = well fitted inhibition curve with a large enough effect; inconclusive = small, poorly fitted or top-dose-only effect; inactive = no such curve, though single readings can be large or run the other way. A potency beside an inconclusive call is a rough fit, not a confirmed value.
# Biological target: Chromobox protein homolog 1 (Homo sapiens) (UniProt P83916)
# UniProt P83916, sequence (P83916 whole entry, looked up): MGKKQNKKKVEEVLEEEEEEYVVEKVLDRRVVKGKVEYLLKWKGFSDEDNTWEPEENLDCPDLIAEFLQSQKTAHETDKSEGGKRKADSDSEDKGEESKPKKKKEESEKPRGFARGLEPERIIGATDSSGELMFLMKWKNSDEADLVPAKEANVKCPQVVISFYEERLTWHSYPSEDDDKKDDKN
# Experiment: HTS for Inhibitors of HP1-beta Chromodomain Interactions with Methylated Histone Tails; also: nearly all actives have a fitted effect of over 70% in size
# Settings: AlphaScreen HP1-beta / biotin-H3K9me3 peptide binding; series mostly up to 114 µM; activity change, negative = inhibition: at the top concentration
# In short: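 HP1-beta protein (50 nM final) preincubated 30 min at room temperature with biotinylated H3(1-18)K9me3 peptide (50 nM) in PBS pH 7.4, 0.01% Tween-20, then compound added for 30 min. AlphaScreen streptavidin donor/nickel chelate acceptor beads (10 ug/mL final), 30 min dark, luminescence read.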
# Potency is read from the fitted curve at half-maximal effect; tags tell the direction and shape of the fitted curve.
Compound,"activity change, negative = inhibition",Potency
O=C(Nc1ccc(S(=O)(=O)Nc2ncccn2)cc1)c1ccc(S(=O)(=O)N2CCCC2)cc1,inactive: 28.2%,
COc1ccc(Nc2ccc3c(c2)=NC2(CCCCC2)[N+]=3[O-])cc1,,"inconclusive: 39.8 µM [inhibitor, partial curve]"
O=[N+]([O-])c1cccc(CN2CCC(Cc3ccccc3)CC2)c1,,"inconclusive: 56.2 µM [inhibitor, single point]"
COc1cccc(-c2sc3ccccc3c2-c2ccc(OCCN3CCCC3)cc2)c1,,"inconclusive: 35.5 µM [inhibitor, partial curve]"
COc1cc(CN2CCC(C(=O)NC3CCCC3)CC2)ccc1O,,"inconclusive: 7.08 µM [inhibitor, full curve]"
COc1ccccc1C(=O)Nc1ccccc1OCc1cc(=O)n2c(C)csc2n1,inactive: 35.4%,
Cc1cc(O)c(C(C)C)cc1NC(=S)Nc1cc(C(C)C)c(O)cc1C,,"inconclusive: 20 µM [inhibitor, single point]"
C=CCn1c(O)c(N=NC(=S)Nc2ccc(OC)c(Cl)c2)c2ccccc21,,"inconclusive: 11.2 µM [inhibitor, full curve]"
COc1cccc(-c2sc3ccc(OC)cc3c2-c2ccc(OCCN(C)C)cc2)c1,,"inconclusive: 39.8 µM [inhibitor, partial curve]"
CCOC(=O)/C(=N/Nc1ccccc1)N1CCCc2ccccc21,inactive: 12.1%,
COc1cccc(-c2csc(NC(=O)Oc3ccccc3)n2)c1,,"inconclusive: 70.8 µM [inhibitor, partial curve]"
N#Cc1c(Nc2ccccc2)[n+]([O-])c2ccc(Cl)cc2[n+]1[O-],,"inconclusive: 15.8 µM [inhibitor, partial curve, poor fit]"
CCOC(=O)[C@@H]1CSCCS(=O)(=O)N1,inactive: 39.7%,
O=S(=O)(c1ccc(F)cc1)N1CCN(c2nc(-c3ccccc3)nc3cc(Cl)ccc23)CC1,inactive: 15%,
O=c1cc(CN2CCN(c3ccc(O)cc3)CC2)nc2scc(-c3ccccc3)n12,,"inconclusive: 89.1 µM [inhibitor, single point]"
Cc1ccc(NC(=O)/C=C/c2ccco2)nc1,,"inconclusive: 79.4 µM [inhibitor, single point]"
C#CCOCCOCCOCCNc1nc(N2CCN(C(=O)CCCCCCCCCCNC(=O)Cn3cc(CCCCCN)nn3)CC2)nc(N2CCN(C(=O)CCCCCCCCCCNC(=O)[C@H]([C@@H](C)CC)n3cc(CCCCCN)nn3)CC2)n1,,"inconclusive: 56.2 µM [inhibitor, partial curve, poor fit]"
CC1CCN(C(=S)c2cn(Cc3ccccc3F)c3ccccc23)CC1,,"inconclusive: 56.2 µM [inhibitor, partial curve, poor fit]"
Brc1cccc(OCCN2CCCCC2)c1,,"inconclusive: 56.2 µM [inhibitor, partial curve, poor fit]"
CCCn1nc(C(=O)Nc2cc(OCC)c(N3CCOCC3)cc2OCC)c2ccccc2c1=O,,"inconclusive: 12.6 µM [inhibitor, full curve]"
Cc1cc(C)cc(NC(=O)NCCc2c(C)nn(C)c2C)c1,inactive: -4.68%,
O=C(O)c1ccccc1-c1ccc(/C=c2\sc3nc4cc(Br)cnc4n3c2=O)o1,,active: 6.31 µM
COc1cccc(CN2CC(C(=O)NC3CCC3)CCC2=O)c1 (configuration not stated),inactive: 11% [at 57 µM],

Compound,"activity change, negative = inhibition",Potency
CS(=O)(=O)Nc1ccccc1C(=O)OCC(=O)N1CCC(c2ccccc2)=N1,inactive: 31.1%,
CCN(CC)c1ccc2nc3ccccc3[n+](CC)c2c1,,"inconclusive: 14.1 µM [inhibitor, full curve]"
COc1ccc(N2CCN(c3oc(Cc4cccc5ccccc45)nc3C#N)CC2)cc1,,"inconclusive: 20 µM [inhibitor, partial curve, poor fit]"
Cc1ccc(S(=O)(=O)NCc2ccc(C(=O)N3CCc4ccccc4C3)cc2)cc1,,"inconclusive: 39.8 µM [inhibitor, single point]"
CCOc1cc(/C=C(\C#N)C(=O)Nc2cccc(C(=O)O)c2)cc(Br)c1OC(=O)c1ccc(OC)cc1,,"inconclusive: 56.2 µM [inhibitor, single point]"
Cc1nnc(N/N=C/c2cc([N+](=O)[O-])c(N3CCC(C)CC3)cc2N2CCC(C)CC2)n1N,,"inconclusive: 44.7 µM [inhibitor, partial curve, poor fit]"
c1ccc2c(c1)CCN(C1=Nc3cccc4cccc1c34)C2,,"inconclusive: 50.1 µM [inhibitor, partial curve, poor fit]"
COc1ccccc1N=C1SCC(=O)N1c1ccccc1OC,,"inconclusive: 28.2 µM [inhibitor, single point]"
CCOC(=O)C1=C2NC(=O)c3ccccc3N2C(=O)C1,,"inconclusive: 89.1 µM [inhibitor, partial curve, poor fit]"
COC(=O)C1CCN(C(=O)COC(=O)c2ccc3[nH]c4c(c3c2)CCCC4)CC1,,"inconclusive: 70.8 µM [inhibitor, partial curve]"
CCc1nnc(NC(=O)CN2CCN(c3ccccc3OC)CC2)s1,,"inconclusive: 56.2 µM [inhibitor, partial curve]"
COc1ccc(NS(=O)(=O)c2ccc(N3CCCCS3(=O)=O)cc2)cc1Cl,inactive: 37.8%,
Cc1cc(NC(=O)/C=C/c2ccccc2Cl)no1,inactive: 15.9%,
O=C(CCN1c2ccccc2Sc2ccccc21)OCC(=O)N1CCN(C(=O)c2ccco2)CC1,,"inconclusive: 17.8 µM [inhibitor, partial curve, poor fit]"
COc1cc(/C=C2\SC(=S)N(NC(=O)c3cccc(O)c3)C2=O)ccc1O,,active: 44.7 µM
Oc1c(Br)cc(/C=N/Nc2ccc(Cl)nn2)cc1Br,,"inconclusive: 70.8 µM [inhibitor, partial curve]"
Cc1occc1C(=O)NCc1cccc(CNC(=O)c2ccoc2C)c1,,"inconclusive: 44.7 µM [inhibitor, partial curve]"
CN(C)c1ccc(Nc2ncnc3ccc(Br)cc23)cc1,,"inconclusive: 20 µM [inhibitor, full curve]"
CSc1nnc(-c2ccco2)c(-c2ccco2)n1,,"inconclusive: 70.8 µM [inhibitor, single point]"
CCOC(=O)c1sc(=S)n(-c2ccccc2Cl)c1SC,inactive: -1.89%,
COc1ccc(-n2c(C)c([N+](=O)[O-])c3ccc(O)c(CN4CCCCC4)c32)cc1,,"inconclusive: 44.7 µM [inhibitor, partial curve]"
Cn1c2ccccc2c2cc(/C=N/NC(=O)c3ccc(O)cc3O)ccc21,inactive: 24.1%,
Cc1ccc(C)c(NC(=O)CSc2nccn2-c2cccc(C)c2C)c1,,"inconclusive: 11.2 µM [inhibitor, partial curve, poor fit]"

Compound,"activity change, negative = inhibition",Potency
O=C(O)c1ccccc1C(=O)NCc1ccc2c(c1)OCO2,,"inconclusive: 22.4 µM [inhibitor, full curve, poor fit]"
S=C(NCc1ccco1)N1CCN(Cc2ccc(Cl)cc2Cl)CC1,,"inconclusive: 17.8 µM [inhibitor, full curve, poor fit]"
COc1ccc(S(=O)(=O)N2CCN(c3ccccc3OC)CC2)cc1C(=O)N1CCCCC1,inactive: 11.7% [at 57 µM],
Cc1ccc(-n2c(SCc3ccccc3F)nc3[nH]ncc3c2=O)cc1Cl,inactive: 11.7%,
COc1ccc(CCn2nc(C)c([N+](=O)[O-])c2C)cc1,inactive: 36.7%,
CN(C)CCOc1ccc(Cl)cc1C(C)(C)C,,"inconclusive: 20 µM [inhibitor, full curve]"
O=C(O)c1ccc(NC(=S)NC(=O)c2ccc(-c3ccc(Br)cc3)o2)cc1,,active: 56.2 µM
O=C1NC(=S)SC1=Cc1cc(Br)ccc1O,,"inconclusive: 35.5 µM [inhibitor, partial curve]"
O=C(N/N=C/c1cccnc1)c1ccc(NC(=O)c2cccc(Cl)c2)cc1,,"inconclusive: 70.8 µM [inhibitor, partial curve]"
Cc1cc([N+](=O)[O-])ccc1NC(=O)COc1nsnc1N1CCOCC1,,"inconclusive: 79.4 µM [inhibitor, partial curve, poor fit]"
Cc1cccc(-n2c(C)cc(C(=O)C(=O)Nc3ccccc3F)c2C)c1C,inactive: 9.76%,
O=[N+]([O-])c1ccccc1-c1ccc(C(=S)N2CCCC2)o1,,"inconclusive: 15.8 µM [inhibitor, single point]"
COc1ccc(-n2cnc3cc(NCc4cccs4)ccc32)cc1,,active: 39.8 µM
CCN(CC(=O)Nc1c(F)cccc1F)C(=O)C1CC(=O)N(CCc2ccc(OC)c(OC)c2)C1 (configuration not stated),,"inconclusive: 89.1 µM [inhibitor, single point]"
CC(=O)N1CCCc2cc(S(=O)(=O)N3CCCC(C)C3)ccc21 (configuration not stated),inactive: 48.1%,
O=[N+]([O-])c1ccc(COc2cccc(CNc3ccc(F)cc3)c2)cc1,,"inconclusive: 39.8 µM [inhibitor, partial curve]"
CCN(CC)c1ccc(/C=N/N2CCN(Cc3ccc(C)cc3)CC2)c(O)c1,,"inconclusive: 5.01 µM [inhibitor, full curve]"
O=C(COc1ccc(F)cc1Cl)Nc1cccc(S(=O)(=O)N2CCCCCC2)c1,inactive: 53.1%,
COc1ccc2c(/C=N/NS(=O)(=O)c3ccc(C)cc3)c[nH]c2c1,,"inconclusive: 50.1 µM [inhibitor, partial curve, poor fit]"
O=C(NNC(=O)c1cc2ccccc2oc1=O)c1ccccc1,,"inconclusive: 28.2 µM [inhibitor, partial curve]"
CCc1ccc(/C=C2\SC(=S)N(CCCC(=O)Nc3ccc(C(=O)O)cc3)C2=O)cc1,,"inconclusive: 35.5 µM [inhibitor, partial curve]"
